Measured values from publication PMC9911399, “Two distinct binding modes provide the RNA-binding protein RbFox with extraordinary sequence specificity”.
Residue numbers refer to the chain shown, from its start. Some of the results follow.

B1: UUUAUGC (DNA:RNA)
RNA: GGGAGACCGGAAUUCAGAUUGUCCUUUAUGCUUAAAUCCCGUCGUAGCCACCA
DNA 1: CAATCTGAATTCCGGTCTCCC
DNA 2: TGGTGGCTACGACGGGATT
B2: AUAAGCC (DNA:RNA)
RNA: B1 RNA with U25A, U27A, U29G, G30C
DNA 1: CAATCTGAATTCCGGTCTCCC
DNA 2: TGGTGGCTACGACGGGATT
B3: UUAUCUG (DNA:RNA)
RNA: B1 RNA with U27A, A28U, U29C, G30U, C31G
DNA 1: CAATCTGAATTCCGGTCTCCC
DNA 2: TGGTGGCTACGACGGGATT
B4: GUGGGCA (DNA:RNA)
RNA: B1 RNA with U25G, U27G, A28G, U29G, G30C, C31A
DNA 1: CAATCTGAATTCCGGTCTCCC
DNA 2: TGGTGGCTACGACGGGATT
B5: UCCAAUG (DNA:RNA)
RNA: B1 RNA with U26C, U27C, U29A, G30U, C31G
DNA 1: CAATCTGAATTCCGGTCTCCC
DNA 2: TGGTGGCTACGACGGGATT
B6: CCGAUCC (DNA:RNA)
RNA: B1 RNA with U25C, U26C, U27G, G30C
DNA 1: CAATCTGAATTCCGGTCTCCC
DNA 2: TGGTGGCTACGACGGGATT
B7: CGAGCGU (DNA:RNA)
RNA: B1 RNA with U25C, U26G, U27A, A28G, U29C, C31U
DNA 1: CAATCTGAATTCCGGTCTCCC
DNA 2: TGGTGGCTACGACGGGATT
B8: UUUCUCC (DNA:RNA)
RNA: B1 RNA with A28C, G30C
DNA 1: CAATCTGAATTCCGGTCTCCC
DNA 2: TGGTGGCTACGACGGGATT
B9: CUGGACC (DNA:RNA)
RNA: B1 RNA with U25C, U27G, A28G, U29A, G30C
DNA 1: CAATCTGAATTCCGGTCTCCC
DNA 2: TGGTGGCTACGACGGGATT
B10: AGCGAGG (DNA:RNA)
RNA: B1 RNA with U25A, U26G, U27C, A28G, U29A, C31G
DNA 1: CAATCTGAATTCCGGTCTCCC
DNA 2: TGGTGGCTACGACGGGATT
B11: UCCAGGC (DNA:RNA)
RNA: B1 RNA with U26C, U27C, U29G
DNA 1: CAATCTGAATTCCGGTCTCCC
DNA 2: TGGTGGCTACGACGGGATT
B12: GGAAGCU (DNA:RNA)
RNA: B1 RNA with U25G, U26G, U27A, U29G, G30C, C31U
DNA 1: CAATCTGAATTCCGGTCTCCC
DNA 2: TGGTGGCTACGACGGGATT
B13: CAGGUUC (DNA:RNA)
RNA: B1 RNA with U25C, U26A, U27G, A28G, G30U
DNA 1: CAATCTGAATTCCGGTCTCCC
DNA 2: TGGTGGCTACGACGGGATT
B14: AAAGGAA (DNA:RNA)
RNA: GGGAGACCGGAAUUCAGAUUGUCCAAAGGAAUUAAAUCCCGUCGUAGCCACCA
DNA 1: CAATCTGAATTCCGGTCTCCC
DNA 2: TGGTGGCTACGACGGGATT
B15: GUUGAGC (DNA:RNA)
RNA: B1 RNA with U25G, A28G, U29A
DNA 1: CAATCTGAATTCCGGTCTCCC
DNA 2: TGGTGGCTACGACGGGATT
B16: UCUCCGU (DNA:RNA)
RNA: B1 RNA with U26C, A28C, U29C, C31U
DNA 1: CAATCTGAATTCCGGTCTCCC
DNA 2: TGGTGGCTACGACGGGATT
B17: UACCGGU (DNA:RNA)
RNA: B14 RNA with A25U, A27C, G28C, A30G, A31U
DNA 1: CAATCTGAATTCCGGTCTCCC
DNA 2: TGGTGGCTACGACGGGATT
B18: UCUAGAU (DNA:RNA)
RNA: B1 RNA with U26C, U29G, G30A, C31U
DNA 1: CAATCTGAATTCCGGTCTCCC
DNA 2: TGGTGGCTACGACGGGATT
B19: AAUUUGA (DNA:RNA)
RNA: B14 RNA with A27U, G28U, G29U, A30G
DNA 1: CAATCTGAATTCCGGTCTCCC
DNA 2: TGGTGGCTACGACGGGATT
B20: UUGUUCC (DNA:RNA)
RNA: B1 RNA with U27G, A28U, G30C
DNA 1: CAATCTGAATTCCGGTCTCCC
DNA 2: TGGTGGCTACGACGGGATT
B21: AAAAGGG (DNA:RNA)
RNA: B14 RNA with G28A, A30G, A31G
DNA 1: CAATCTGAATTCCGGTCTCCC
DNA 2: TGGTGGCTACGACGGGATT
B22: UAUACCC (DNA:RNA)
RNA: B1 RNA with U26A, U29C, G30C
DNA 1: CAATCTGAATTCCGGTCTCCC
DNA 2: TGGTGGCTACGACGGGATT
B23: GAGCUGC (DNA:RNA)
RNA: B1 RNA with U25G, U26A, U27G, A28C
DNA 1: CAATCTGAATTCCGGTCTCCC
DNA 2: TGGTGGCTACGACGGGATT
B24: CAAAUCA (DNA:RNA)
RNA: B14 RNA with A25C, G28A, G29U, A30C
DNA 1: CAATCTGAATTCCGGTCTCCC
DNA 2: TGGTGGCTACGACGGGATT
B25: GUAGAAU (DNA:RNA)
RNA: B14 RNA with A25G, A26U, G29A, A31U
DNA 1: CAATCTGAATTCCGGTCTCCC
DNA 2: TGGTGGCTACGACGGGATT
B26: GGCAUGA (DNA:RNA)
RNA: B1 RNA with U25G, U26G, U27C, C31A
DNA 1: CAATCTGAATTCCGGTCTCCC
DNA 2: TGGTGGCTACGACGGGATT
B27: GACUGCA (DNA:RNA)
RNA: B14 RNA with A25G, A27C, G28U, A30C
DNA 1: CAATCTGAATTCCGGTCTCCC
DNA 2: TGGTGGCTACGACGGGATT
B28: CUCCGGU (DNA:RNA)
RNA: B1 RNA with U25C, U27C, A28C, U29G, C31U
DNA 1: CAATCTGAATTCCGGTCTCCC
DNA 2: TGGTGGCTACGACGGGATT
B29: CUUAAUC (DNA:RNA)
RNA: B1 RNA with U25C, U29A, G30U
DNA 1: CAATCTGAATTCCGGTCTCCC
DNA 2: TGGTGGCTACGACGGGATT
B30: CACGGUC (DNA:RNA)
RNA: B14 RNA with A25C, A27C, A30U, A31C
DNA 1: CAATCTGAATTCCGGTCTCCC
DNA 2: TGGTGGCTACGACGGGATT
B31: AUCAGCU (DNA:RNA)
RNA: B14 RNA with A26U, A27C, G28A, A30C, A31U
DNA 1: CAATCTGAATTCCGGTCTCCC
DNA 2: TGGTGGCTACGACGGGATT

target: T1, RBFOX1 RRM RbFoxmut (Fox-RRM*) (Homo sapiens, UniProt Q9NWB1 109-208, R118D;E147R;N151S;E152T); assay: EMSA; HiTS-Eq, 1 nM pool, 10 min; buffer printed only for the single-RNA assays: 10 mM Tris pH 7.5, 150 mM NaCl, 3.4 mM EDTA, 0.001% NP-40, 30 C; details: tags: His6 N-terminal (pET28a); label: 5' 32P
T1 sequence: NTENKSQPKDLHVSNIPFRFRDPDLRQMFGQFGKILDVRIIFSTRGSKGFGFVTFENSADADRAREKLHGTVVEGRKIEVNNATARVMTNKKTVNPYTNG
Outline: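 Purified RbFox RRM, wild type or mutant, was incubated for 10 min in 50 µL with 1 nM of a 5′-radiolabelled RNA pool carrying 7 randomized nucleotides, whose flanks were annealed to DNA oligonucleotides, over a series of increasing protein concentrations. Unbound RNA was resolved on 8% native PAGE, cut out, reverse-transcribed, barcoded by PCR and sequenced on an Illumina HiSeq 2500. Relative association constants were derived from changes in read counts for each RNA species versus the control reaction and normalised to the cognate motif.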

Binder	binding signal
B1	0.134 KA relative to UGCAUGU
B2	0.1 KA relative to UGCAUGU
B3	0.0695 KA relative to UGCAUGU
B4	0.105 KA relative to UGCAUGU
B5	0.117 KA relative to UGCAUGU
B6	0.0468 KA relative to UGCAUGU
B7	0.117 KA relative to UGCAUGU
B8	0.0455 KA relative to UGCAUGU
B9	0.082 KA relative to UGCAUGU
B10	0.0956 KA relative to UGCAUGU
B11	0.0951 KA relative to UGCAUGU
B12	0.055 KA relative to UGCAUGU
B13	0.137 KA relative to UGCAUGU
B14	0.0906 KA relative to UGCAUGU
B15	0.13 KA relative to UGCAUGU
B16	0.118 KA relative to UGCAUGU

Binder	binding signal
B17	0.0607 KA relative to UGCAUGU
B18	0.0932 KA relative to UGCAUGU
B19	0.06 KA relative to UGCAUGU
B20	0.104 KA relative to UGCAUGU
B21	0.0588 KA relative to UGCAUGU
B22	0.0554 KA relative to UGCAUGU
B23	0.0895 KA relative to UGCAUGU
B24	0.0805 KA relative to UGCAUGU
B25	0.108 KA relative to UGCAUGU
B26	0.624 KA relative to UGCAUGU
B27	0.224 KA relative to UGCAUGU
B28	0.0877 KA relative to UGCAUGU
B29	0.0604 KA relative to UGCAUGU
B30	0.177 KA relative to UGCAUGU
B31	0.113 KA relative to UGCAUGU
